Experimental data: PubChem BioAssay AID488969 (Vanderbilt High Throughput Screening Facility, 2010)
The full ranking holds about 110,000 compounds; the median of “z-score” is about -0.1, and the highest 2% start at about 2. This is one part of the list.

The compounds below were run against Metabotropic glutamate receptor 8 (Rattus norvegicus) (UniProt P70579) (assay: mGluR8 Gi/Go-coupled signaling modulation – cell-based, rat, thallium flux, HTS, primary screen (AID 488969)). Details: HEK293 rat mGluR8, GIRK (G protein-gated inwardly rectifying potassium channel) thallium flux, FluoZin2; at 10 µM; stronger effect = higher value; submaximal glutamate (EC20) added with thallium.
UniProt P70579, sequence (P70579 whole entry, looked up): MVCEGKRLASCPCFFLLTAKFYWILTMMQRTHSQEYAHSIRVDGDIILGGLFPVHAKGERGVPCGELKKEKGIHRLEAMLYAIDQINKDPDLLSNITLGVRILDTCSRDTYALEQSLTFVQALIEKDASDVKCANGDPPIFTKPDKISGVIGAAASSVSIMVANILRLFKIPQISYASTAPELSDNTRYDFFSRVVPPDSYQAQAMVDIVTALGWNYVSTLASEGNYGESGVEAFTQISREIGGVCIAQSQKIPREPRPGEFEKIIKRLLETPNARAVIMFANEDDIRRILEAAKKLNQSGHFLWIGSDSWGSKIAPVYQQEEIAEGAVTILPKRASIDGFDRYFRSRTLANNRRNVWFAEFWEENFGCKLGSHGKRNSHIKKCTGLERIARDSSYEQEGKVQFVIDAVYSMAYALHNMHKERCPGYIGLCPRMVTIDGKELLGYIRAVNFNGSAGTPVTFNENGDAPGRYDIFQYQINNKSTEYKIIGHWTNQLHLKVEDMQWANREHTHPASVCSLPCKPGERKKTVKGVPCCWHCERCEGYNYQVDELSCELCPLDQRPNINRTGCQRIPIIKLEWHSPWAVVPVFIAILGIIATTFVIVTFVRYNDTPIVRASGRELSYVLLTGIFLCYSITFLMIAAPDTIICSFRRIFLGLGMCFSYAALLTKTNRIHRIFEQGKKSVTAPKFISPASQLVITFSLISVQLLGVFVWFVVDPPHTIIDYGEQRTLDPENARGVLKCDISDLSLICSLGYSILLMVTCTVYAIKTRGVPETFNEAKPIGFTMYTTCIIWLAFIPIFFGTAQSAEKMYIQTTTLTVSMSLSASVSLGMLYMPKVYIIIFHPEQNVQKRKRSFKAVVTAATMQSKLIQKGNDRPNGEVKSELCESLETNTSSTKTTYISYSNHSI
Work on Cc1ccc(NC(=S)NNC(=O)c2ccccc2OC(F)F)cc1 yielded a z-score of 0.966.
CCOC(=O)c1[nH]c(C)c(C(=O)N2CCN(c3ccc(F)cc3)CC2)c1C gave a z-score of 0.736.
Cc1nc(C(F)(F)F)nc(Nc2ccc(N=Nc3ccccc3)cc2)c1C#N showed a z-score of -0.051.
With COC(=O)c1ccc(Sc2ccccc2NS(=O)(=O)c2ccc(NC(C)=O)cc2)nc1 the z-score was 0.14.
For CC(C)N1C(=O)c2ccc(C(=O)O)cc2C1=O, the z-score was 0.911.
With COC(=O)Nc1sc2c(c1C(=O)NCc1ccco1)CCCC2 the z-score was -0.564.
With CC(C)C(=O)Nc1cccc(C(=O)Nc2nnc(C(C)(C)C)s2)c1 the z-score was -0.135.
Compound Cc1nn(C(C)c2n[nH]c(=S)n2-c2ccc(F)cc2)c(C)c1[N+](=O)[O-] (stereo unspecified) has a z-score of 0.274.
Compound O=C(O)c1cccc(NC(=O)C2CCCO2)c1 (stereo unspecified) has a z-score of -0.529.
Compound c1coc(-c2nnc(-c3ccc4c(c3)OCO4)o2)c1 has a z-score of 0.449.
CCn1c(SCC(=O)NCc2ccco2)nnc1-c1ccc(N)cc1 gave a z-score of 1.58.
Work on O=C(Cc1ccccc1)NC(=S)Nc1ccc2oc(-c3ccccc3)nc2c1 yielded a z-score of -0.179.
For Cc1[nH]nc(N2CCCCCC2)c1[N+](=O)[O-], the z-score was 0.256.
COc1cc(NS(=O)(=O)c2cccc3nsnc23)c(C(=O)O)cc1OC was tested, and the z-score was -0.281.
Cc1ccn2c(NC3CCCCC3)c(C)nc2c1 showed a z-score of -0.312.
Compound CCOC(=O)N1CCN(Cc2nc(N)nc(Nc3ccc(OCC)cc3)n2)CC1 has a z-score of -0.27.
Compound CCOc1ccccc1C1NC(=O)NC(C)=C1C(=O)OC1CCCC1C (stereo unspecified) has a z-score of -0.134.
Work on CCOC(=O)C1CCN(Cc2ccc(Cl)c(Cl)c2)CC1 yielded a z-score of 0.132.
CCC(=O)N(CCCN(C)C)c1nc(-c2cc(OC)ccc2OC)cs1 showed a z-score of 1.6.
Compound COc1ccc2[nH]c3c(NCCCN4CCCC4=O)ncnc3c2c1 has a z-score of -0.439.
Work on COC(=O)c1[nH]c2ccccc2c1NC(=O)C(C)N1CCN(C(=O)c2ccco2)CC1 (stereo unspecified) yielded a z-score of -0.0506.
Cc1ccc(NC(=O)CC2S/C(=N/N=C/C=C/c3ccccc3)NC2=O)cc1Cl (stereo unspecified) gave a z-score of -0.251.
For CCNC(=S)NNC(=O)c1csc(C(C)C)c1, the z-score was -0.354.
In the case of CC(=O)N1N=C(c2ccncc2)OC12CCCCCC2, the z-score is reported as 0.0573.
In the case of Cc1cc(C)n2c(SCC(=O)N3CCN(S(=O)(=O)c4ccc(Cl)cc4)CC3)nnc2n1, the z-score is reported as -0.165.
With O=C(Nc1ccccc1Cl)ON=C1c2ccccc2-c2ccccc21 the z-score was 0.0477.
In the case of CC/C(C)=N/Nc1cccc([N+](=O)[O-])c1, the z-score is reported as 0.117.
O=C(CSc1nnc(-c2cccs2)n1Cc1ccco1)c1ccc2c(c1)OCO2 gave a z-score of -0.813.
O=c1[nH]c(CN2CCN(Cc3ccccc3)CC2)nc2sc3c(c12)CCC3 was tested, and the z-score was -0.568.
For CC(=O)c1cccc(NC(=S)NCCCCc2ccccc2)c1, the z-score was -0.454.
CCOC(=O)c1cc2sc(C)cc2n1C(C)C(=O)OCC (stereo unspecified) gave a z-score of -1.32.
